Measured values as given in the supplement of paper PMC4604168 (melanoma cell lines).
The list shows a part of the results. Repeats are few or missing, and single values can be far off.

Assays:
Experiment in all cases: cell count relative to DMSO control; melanoma cells; higher = more viable cells
Conditions in all cases: library dose: standard library concentration; 72 h
G361 = tested on: G361
IPC-298 = tested on: IPC-298
IST-MEL1 = tested on: IST-MEL1
LB2518-MEL = tested on: LB2518-MEL
LOXIMVI = tested on: LOXIMVI
MEL-HO = tested on: MEL-HO
MZ2-MEL = tested on: MZ2-MEL
MeWo = tested on: MeWo
RPMI7951 = tested on: RPMI7951
RVH-421 = tested on: RVH-421
SkMel28 = tested on: SkMel28
SkMel2 = tested on: SkMel2
SkMel30 = tested on: SkMel30
SkMel5 = tested on: SkMel5
UACC257 = tested on: UACC257
UACC62 = tested on: UACC62
WM115 = tested on: WM115
WM1716 = tested on: WM1716
WM3526 = tested on: WM3526
WM1745 = tested on: WM1745
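Note: cells treated in 1,536-well plates, then fixed and DAPI-stained, with nuclei counted from automated high-throughput microscope images.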

| Structure (SMILES) | cell count (G361) [%] | cell count (IPC-298) [%] | cell count (IST-MEL1) [%] | cell count (LB2518-MEL) [%] | cell count (LOXIMVI) [%] | cell count (MEL-HO) [%] | cell count (MZ2-MEL) [%] | cell count (MeWo) [%] | cell count (RPMI7951) [%] | cell count (RVH-421) [%] | cell count (SkMel28) [%] | cell count (SkMel2) [%] | cell count (SkMel30) [%] | cell count (SkMel5) [%] | cell count (UACC257) [%] | cell count (UACC62) [%] | cell count (WM115) [%] | cell count (WM1716) [%] | cell count (WM3526) [%] | cell count (WM1745) [%] |
| --- | --- | --- | --- | --- | --- | --- | --- | --- | --- | --- | --- | --- | --- | --- | --- | --- | --- | --- | --- | --- |
| N.N.[Cl][Pt][Cl] [cisplatin] + Oc1nc(-c2ccc(C(F)(F)F)cc2)nc2c1CSCC2 [XAV939] (first compound 8 µM, partner dose 10 µM) | 75.5 | 80.7 | 76.9 | 86.8 | 93.4 | 70.5 | 83 | 84.3 | 61.9 | 80.5 | 65.9 | 85.5 | 105 | 69.1 | 72.7 | 81 | 83.8 | 45.6 | 82.3 |  |
| C[C@]12O[C@H](C[C@]1(O)CO)n1c3ccccc3c3c4c(c5c6ccccc6n2c5c31)CNC4=O [Lestaurtinib] + CN(C)S(=O)(=O)c1ccc2c(c1)/C(=C/c1cc3c([nH]1)CCCC3)C(=O)N2 [SU6656] (first compound 0.02 µM, partner dose 2 µM) | 76.9 | 57.3 | 74.9 | 45.1 | 101 | 92.9 | 73.7 | 69 | 48.1 | 87.5 | 41.2 | 85.9 | 71.9 | 55.3 | 86.5 | 74.9 | 41.5 | 73.5 | 54.4 | 64.1 |
| C[As](C)SC[C@H](NC(=O)CC[C@H](N)C(=O)O)C(=O)NCC(=O)O [Darinaparsin] + COC(=O)c1sccc1S(=O)(=O)Nc1ccc(Nc2ccccc2)cc1OC [GSK0660] (first compound 2 µM, partner dose 5 µM) | 55.3 | 90.7 | 84.1 | 81.1 | 84.2 | 92.4 | 67.9 | 71 | 63.8 | 72.3 | 58.2 | 82.4 | 71.1 | 50.8 | 81.2 | 63.1 | 73.2 | 63.4 | 68.6 | 83.8 |
| N.N.[Cl][Pt][Cl] [cisplatin] + COc1cc(Nc2ncc(F)c(Nc3ccc4c(n3)NC(=O)C(C)(C)O4)n2)cc(OC)c1OC [Tamatinib] (first compound 8 µM, partner dose 2 µM) | 72.8 | 80 | 74.2 | 60.1 | 25.9 | 77.9 | 106 | 79.9 | 49.8 | 78.8 | 55.2 | 83.9 | 77.9 | 55 | 65.1 | 73.9 | 65.5 | 59.8 | 60.2 | 46.6 |
| C[C@]12O[C@H](C[C@]1(O)CO)n1c3ccccc3c3c4c(c5c6ccccc6n2c5c31)CNC4=O [Lestaurtinib] + Nc1cccc2c1CN(C1CCC(=O)NC1=O)C2=O [lenalidomide] (first compound 0.02 µM, partner dose 5 µM) | 94.9 | 81 | 86.6 | 83.9 | 59.3 | 78 | 84.8 | 85.1 | 109 | 101 | 67.1 | 86.5 | 99.5 | 59.3 | 94.7 | 98.4 | 73.5 | 117 | 63.9 | 104 |
| C[As](C)SC[C@H](NC(=O)CC[C@H](N)C(=O)O)C(=O)NCC(=O)O [Darinaparsin] + Cn1c(Nc2ccc(C(F)(F)F)cc2)nc2cc(Oc3ccnc(-c4ncc(C(F)(F)F)[nH]4)c3)ccc21 [CHIR265] (first compound 2 µM, partner dose 0.4 µM) | 16.7 | 42.2 | 83.7 | 31.1 | 83.5 | 63.7 | 58.8 | 52.9 | 58.3 | 41.1 | 44.6 | 46.3 | 66.4 | 34.6 | 76 | 58.6 | 30.1 | 57.1 | 30.6 | 60.7 |
| Cn1cc(C2=C(c3cn(C4CCN(Cc5ccccn5)CC4)c4ccccc34)C(=O)NC2=O)c2ccccc21 [Enzastaurin] + O=c1cc(-c2cccc3c2Sc2ccccc2S3)oc(N2CCOCC2)c1 [KU55933] (first compound 4 µM, partner dose 5 µM) | 41.8 | 84.8 | 58.5 | 42 | 81.1 | 86.9 | 94.6 | 97.4 | 37.8 | 48.9 | 64.7 | 65.8 | 107 | 84.1 | 90 | 62.6 | 113 | 68.3 | 76.9 |  |
| Cn1cc(C2=C(c3cn(C4CCN(Cc5ccccn5)CC4)c4ccccc34)C(=O)NC2=O)c2ccccc21 [Enzastaurin] + NC(=O)Nc1cc(-c2cccc(F)c2)sc1C(=O)N[C@H]1CCCNC1 [AZD7762] (first compound 4 µM, partner dose 0.1 µM) | 64.4 | 104 | 71.2 | 47.2 | 77.6 | 65 | 107 | 68.6 | 13.6 | 70.1 | 40.1 | 72 | 80.9 | 78.5 | 99.3 | 59.3 | 68.9 | 58.7 | 67.8 | 30.9 |
